{
  "source": "PubChem BioAssay (NCI)",
  "system": "NCI-H322M lung",
  "assay": "DTP human tumour cell line panel, 48 h",
  "note": "Where “and” joins values, the source holds several entries; their conditions need not be identical. Equal values may be shown once.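 Assay format: 96-well plates, 48-hour exposure. GI50 marks 50% less growth. TGI: total growth inhibition.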",
  "data": [
    {"compound": "C=C(C)[C@@H]1CC[C@]2(COCCCNCCCN)CC[C@]3(C)[C@H](CC[C@@H]4[C@@]5(C)CC[C@H](OCCCN)C(C)(C)[C@@H]5CC[C@]43C)[C@@H]12", "values": [
      {"measurement": "GI50", "value": 0.939, "unit": "µM"},
      {"measurement": "TGI", "value": 1.71, "unit": "µM"}
    ]},
    {"compound": "Cc1nc2ccccc2c(=O)n1NC(=O)c1ccccc1[N+](=O)[O-]", "values": [
      {"measurement": "TGI", "value": "> 100", "unit": "µM"}
    ]},
    {"compound": "Cc1ccc(NC(=O)C(=O)C(C(=O)c2ccc3ccccc3c2)C2OC(=O)c3ccccc32)c(C)c1", "note": "(stereo unspecified)", "values": [
      {"measurement": "TGI", "value": 31.1, "unit": "µM"}
    ]},
    {"compound": "Oc1cc(O)c2c(c1)O[C@H](c1cc(O)c(O)c(O)c1)[C@@H](O)C2", "values": [
      {"measurement": "TGI", "value": "> 100", "unit": "µM"}
    ]},
    {"compound": "O=c1cc(-c2ccccc2)oc2ccc(OC/C(=N/O)c3ccc(F)cc3)cc12", "values": [
      {"measurement": "GI50", "value": 5.1, "unit": "µM"},
      {"measurement": "TGI", "value": 24.1, "unit": "µM"}
    ]},
    {"compound": "C[N+](C)=c1ccc2nc3c(ccc4ccccc43)oc-2c1", "values": [
      {"measurement": "TGI", "value": 29.3, "unit": "µM"}
    ]},
    {"compound": "CCCCC[C@H]1CC=C2C(=O)C=C[C@@H]2CC=CCCCC(=O)O[C@@H](CCCCC)CC=C2C(=O)C=C[C@@H]2CC=CCCCC(=O)O[C@@H](CCCCC)CC=C2C(=O)C=C[C@@H]2CC=CCCCC(=O)O1", "values": [
      {"measurement": "GI50", "value": 1.56, "unit": "µM"},
      {"measurement": "TGI", "value": "> 8.75", "unit": "µM"}
    ]},
    {"compound": "O=S(c1ccccc1)C1CC2CC3(CCC21O)OCCO3", "note": "(stereo unspecified)", "values": [
      {"measurement": "TGI", "value": "> 100", "unit": "µM"}
    ]},
    {"compound": "Oc1cc(Cl)cc2cc(Cl)cnc12", "values": [
      {"measurement": "TGI", "value": "> 100", "unit": "µM"}
    ]},
    {"compound": "N/C(=N\\NC(=O)c1nc2ccccc2s1)c1ccccn1", "values": [
      {"measurement": "TGI", "value": "> 52.4", "unit": "µM"}
    ]},
    {"compound": "O=C(CNc1nccs1)Nn1cnc2ccc(S(=O)(=O)Nc3nccs3)cc2c1=O", "values": [
      {"measurement": "TGI", "value": "> 100", "unit": "µM"}
    ]},
    {"compound": "O=C1CSC(c2ccc(-c3nc4ccccc4[nH]3)cc2)=N1", "values": [
      {"measurement": "GI50", "value": "> 50", "unit": "µM"},
      {"measurement": "TGI", "value": "> 50", "unit": "µM"}
    ]},
    {"compound": "CN(C)CCNC(=O)c1cccc2nc3ccc4cccnc4c3nc12", "values": [
      {"measurement": "TGI", "value": 3.43, "unit": "µM"}
    ]},
    {"compound": "COC12C=C/C(=C(/C(=O)OCCSc3ccnn3C)C(=O)CCCCCCCCC3(OC)C=C/C(=C(/C(=O)OCCSc4ccnn4C)C(=O)CCCCCCCC1)O3)O2", "values": [
      {"measurement": "GI50", "value": 1.63, "unit": "µM"},
      {"measurement": "TGI", "value": "> 32.5", "unit": "µM"}
    ]},
    {"compound": "COc1cc(O)c(C(=O)CC(C)=O)c(OC)c1", "values": [
      {"measurement": "TGI", "value": "> 100", "unit": "µM"}
    ]},
    {"compound": "COC1(OC)C2(Cl)C(Cl)=C(Cl)C1(Cl)C1c3ccc(C(C)=O)c4cccc(c34)C12", "note": "(stereo unspecified)", "values": [
      {"measurement": "TGI", "value": "> 100", "unit": "µM"}
    ]},
    {"compound": "c1cc(CN2CCCNCCNCCCNCC2)ccc1CN1CCCNCCNCCCNCC1", "values": [
      {"measurement": "GI50", "value": "> 100", "unit": "µM"},
      {"measurement": "TGI", "value": "> 100", "unit": "µM"}
    ]},
    {"compound": "CN(C)c1ccc(C(=N)c2ccc(N(C)C)cc2)cc1", "values": [
      {"measurement": "GI50", "value": "9.53 µM and 14.3 µM"},
      {"measurement": "TGI", "value": "69.9 µM and > 100 µM"}
    ]},
    {"compound": "CC(C)(CN1CCOCC1)C(=O)/C=C/c1ccc(/C=C/C(=O)C(C)(C)CN2CCOCC2)cc1", "values": [
      {"measurement": "TGI", "value": 2.97, "unit": "µM"}
    ]},
    {"compound": "Cc1c(N)nc([C@H](CC(N)=O)NC[C@H](N)C(N)=O)nc1C(=O)N[C@H](C(=O)N[C@H](C)[C@@H](O)CC(=O)N[C@H](C(=O)NC(O[C@@H]1O[C@@H](C)[C@@H](N)[C@@H](O)[C@H]1O)C(O)c1nc(-c2nc(C(=O)NCCCCN)cs2)cs1)[C@@H](C)O)[C@@H](O[C@@H]1O[C@@H](CO)[C@@H](O)[C@H](O)[C@@H]1O[C@H]1O[C@H](CO)[C@@H](O)[C@H](OC(N)=O)[C@@H]1O)c1c[nH]cn1", "note": "(stereo partly specified)", "values": [
      {"measurement": "TGI", "value": "> 50", "unit": "µM"}
    ]},
    {"compound": "CC(=O)NNc1nc(C)c(C(/C=C/c2ccc([N+](=O)[O-])cc2)=N/NC(N)=O)s1", "values": [
      {"measurement": "TGI", "value": "> 100", "unit": "µM"}
    ]},
    {"compound": "CCn1c(-c2c(Cl)cc(O)cc2Cl)cc2c(Cl)cc(O)cc21", "values": [
      {"measurement": "TGI", "value": 32.8, "unit": "µM"}
    ]},
    {"compound": "S=c1nc(C(c2ccccc2)c2ccccc2)[nH][nH]1", "values": [
      {"measurement": "TGI", "value": "> 100", "unit": "µM"}
    ]},
    {"compound": "Cc1nc(N)sc1C(=O)Nc1ncn[nH]1", "values": [
      {"measurement": "TGI", "value": "> 100", "unit": "µM"}
    ]}
  ]
}
